According to the supplement of paper PMC11417369:
± gives the standard deviation of the averaged measurements. This is one part of the list.

tested on: PfAP2-EXP AP2 domain (GST-tagged); test: gcPBM binding intensity (ln(normalized median fluorescence intensity)); higher = stronger DNA binding
Procedure, shortened: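 The highest Masliner-normalised natural-log median intensity across replicate spots of either probe orientation is reported as binding intensity. GST-tagged P. falciparum DNA-binding domains expressed in E. coli were applied for 1 h to an Agilent 4 × 180k array of primer-extended double-stranded 36-bp intergenic genomic probes plus negative controls, and bound protein was detected with Alexa488 anti-GST antibody and scanned at 488 nm.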

| Sequence | gcPBM binding intensity (ln) |
| --- | --- |
| TATATATGTTAAAACGTGCACATATATATATATATA [GTGCAC_site9589] | 10.2 ± 0.21 |
| ATAAAATATAAAAAAAGTACAAAAAAAAAAAAAAAA [XGTACX_site6657] | 8.1 ± 0.51 |
| AAAAAAAAATACATATGTACATATACATATATATAT [XGTACX_site2975] | 9.55 ± 0.2 |
| ATATTATATAAATATACACACATTGTTTTATAGCAT [CACACA_site2386] | 8.51 ± 0.42 |
| ATATATTTAATTTATGGTACACATAATTTTTTTAGA [XGTACX_site848] | 8.38 ± 0.33 |
| TATATATATATATATACACACATATATATAAATATA [CACACA_site2035] | 10.2 ± 0.26 |
| TTAAAAAAAAGACACACACACATACACATATTTATA [CACACA_site7535] | 8.7 ± 0.47 |
| CACAAAAGTAAGCACGCACACACAACCTGAAATAAA [CACACA_site166] | 8.7 ± 0.45 |
| AAAAGAAAATAAGAAACACACAAAAATATGTAAAAA [CACACA_site7694] | 8.62 ± 0.44 |
| ATTTTTATATAATGAACACACATATTATATCATTTA [CACACA_site1572] | 8.35 ± 0.41 |
| TTAGTCATATATATATGTACACACATATATATATTT [XGTACX_site2948] | 8.35 ± 0.26 |
| GAACATACTCAAATAGCACACACATAAATAAAAATG [CACACA_site9283] | 8.89 ± 0.56 |
| AAAATCCACATTTTAGTACACACTTAAAAAATTATT [CACACA_site2955] | 8.38 ± 0.19 |
| TATATATATATAATATGTACATATAATCAACATTTT [XGTACX_site3915] | 9.68 ± 0.27 |
| TTATATATATATATATGTACGAAAAAGAAAAAAAAG [XGTACX_site6761] | 8.78 ± 0.56 |
| AAATGAGTATTCATATGTACACAAATAAAAAATTAA [XGTACX_site2968] | 8.61 ± 0.28 |
| ATGGAAGGAAACAATAAAAAAAAAAAAAAATATATA [XGTACX_negctrl_site594] | 8.53 ± 0.45 |
| AATGACAACCTTGTCACACATATATATATATATATA [CACACA_site5977] | 10.2 ± 0.4 |
| TTTTTTATTTGACAAGCACACACTTAAATATATATA [CACACA_site3358] | 8.52 ± 0.38 |
| CATTTAAAGGACAAGCTGCACTTACAAAATAAAAAA | 8.54 ± 0.3 |
| ATCTTTGGAAATTTATGTACTTATATTTATATTGTA [XGTACX_site6606] | 8.54 ± 0.26 |
| ATTTCTAGTTTAAGATGTACTTTAATAAAAATTATT [XGTACX_site4820] | 8.45 ± 0.33 |

| Sequence | gcPBM binding intensity (ln) |
| --- | --- |
| AAATATCAACAAAAATGTACAAATGTAAAAGAATAT [XGTACX_site4676] | 8.88 ± 0.4 |
| TTTTTTTTTTAATAAAGTACATATAAATTACCTAAT [XGTACX_site4434] | 8.06 ± 0.31 |
| ACTATACAGTTATACACACACATATATATATAATAT [CACACA_site310] | 8.86 ± 0.31 |
| AGGTTAAAAATAAATACACACATTTTATGTCTGTAT [CACACA_site996] | 8.23 ± 0.45 |
| TATATATATATTGAAGTGCAAAATACTGTACGTAAT | 9.56 ± 0.2 |
| AAAAGAATATAAAGATACATTGTGATATGGGACAAA [CACACA_negctrl_site405] | 8.81 ± 0.47 |
| GAAATAATTTCATATACACACATATACATACATACA [CACACA_site1358] | 8.94 ± 0.21 |
| TATATATATATAAACAGTACACAAATTGTAAATAAA [XGTACX_site8268] | 9.68 ± 0.071 |
| TTAATTCTACTTATTACACACATATTAATCAAAAAT [CACACA_site1478] | 8.46 ± 0.43 |
| TATATATATATATATATTGAAATTTATAATAATATT [TGCATGCA_negctrl_site407] | 10 ± 0.36 |
| ATTTTTTTATGTACACAAAAAAAAAAAAAAATTTAA [CACACA_negctrl_site1028] | 8.57 ± 0.34 |
| AAATATTTATACTATACACACCCAATTTAAAAAAAA [CACACA_site6669] | 8.69 ± 0.35 |
| AACATAGAAACGTTATGTACATATTGAAGGATATTA [XGTACX_site6015] | 8.94 ± 0.38 |
| ATATTATAATTAAAACGTACGTATTTATGAATTCAT [XGTACX_site1047] | 8.84 ± 0.4 |
| TATTAATTAAACCATACACACATAATTTTTTTATAA [CACACA_site843] | 8.21 ± 0.43 |
| TACATAAATTAAAACACACACACACTAAAAAAAAAA [CACACA_site7130] | 8.64 ± 0.36 |
| GTTAATATTTACTACACACACTTAAAATATGTATAT [CACACA_site4194] | 8.63 ± 0.34 |
| TTTTCATTTTTCTTTACACACATATATTTATTTATA [CACACA_site7119] | 8.94 ± 0.4 |
| AAGGTATTTATAACTACACACTTATTTATAACCTAA [CACACA_site6194] | 8.22 ± 0.38 |
| TATACCAATGAATGAGTGCAAAGAAGATAAGGAAAA | 9.16 ± 0.34 |
| ACTTATTGTGGTTTTGCATGTAGCATTTTTACATAC [TGCATGCA_site247] | 9.26 ± 0.36 |
| AATAAAATGAAATGAAATAAAAAAAAAAAAAAAATG [TGCATGCA_negctrl_site305] | 8.28 ± 0.63 |
